The other results are listed elsewhere or left out.

The target in the assay is T1, MBP-FoxP1dN (Mus musculus, UniProt P58462 326-579).
T1 sequence: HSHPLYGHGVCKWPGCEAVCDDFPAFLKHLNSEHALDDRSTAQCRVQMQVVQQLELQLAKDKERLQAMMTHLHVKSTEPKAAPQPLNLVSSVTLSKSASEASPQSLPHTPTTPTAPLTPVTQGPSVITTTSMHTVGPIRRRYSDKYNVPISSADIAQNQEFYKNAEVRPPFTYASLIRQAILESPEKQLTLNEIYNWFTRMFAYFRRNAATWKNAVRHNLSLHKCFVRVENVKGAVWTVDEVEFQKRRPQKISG
The experiment in a line: PD-seq (MBP pull-down with sequencing); 20 mM Tris-HCl pH 7.5, 100 mM NaCl, 1.5 mM MgCl2, 0.4 uM protein, 0.1 uM dsDNA library, 30 min, room temperature, amylose pull-down; high values mean tight binding. The note with it: protein: recombinant; tags: His6-MBP; chain copies: 2; dsDNA, one strand shown. The method in brief:
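Binding is given as reads-per-million enrichment, pull-down over input, with replicates pooled. The bait was an N-terminus-lacking mouse FoxP3 or FoxP1 fragment with a His6-MBP tag, expressed in E. coli and used at 0.4 µM with 0.1 µM Klenow-filled degenerate double-stranded DNA library for 30 min at room temperature in Tris pH 7.5 buffer with NaCl and MgCl2. Amylose resin pull-down with three washes was followed by proteinase K release, PCR barcoding and Illumina sequencing.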
Take “GATGATTGTTCTCCCAGCTGATGAATTATGACAATCGAGTAAACAAATTTTCCTAATCTTTCTGTTCAAGCGCCATCTAC”: the binding signal is 1.38 RPM ratio (pull-down/input). On to “GATGATTGTTCTCCCAGCTGATGAATTCTTCGCGTCGAGTAAACAAATTTTCCTAATCTTTCTGTTCAAGCGCCATCTAC”, for which the binding signal was 0.892 RPM ratio (pull-down/input). For the sequence “GATGATTGTTCTCCCAGCTGATGAATTGATATAGTCGAGTAAACAAATTTTCCTAATCTTTCTGTTCAAGCGCCATCTAC”, the binding signal was 1.04 RPM ratio (pull-down/input). Regarding “GATGATTGTTCTCCCAGCTGATGAATTCCACAGTTCGAGTAAACAAATTTTCCTAATCTTTCTGTTCAAGCGCCATCTAC”, the binding signal was 0.831 RPM ratio (pull-down/input).

Turning to “GATGATTGTTCTCCCAGCTGATGAATTGACAGATTCGAGTAAACAAATTTTCCTAATCTTTCTGTTCAAGCGCCATCTAC”, the binding signal is 1.28 RPM ratio (pull-down/input). Turning to “GATGATTGTTCTCCCAGCTGATGAATTTGACCCCTCGAGTAAACAAATTTTCCTAATCTTTCTGTTCAAGCGCCATCTAC”, the binding signal was 0.843 RPM ratio (pull-down/input). In the case of “GATGATTGTTCTCCCAGCTGATGAATTTTGTATTTCGAGTAAACAAATTTTCCTAATCTTTCTGTTCAAGCGCCATCTAC”, the binding signal was 1.42 RPM ratio (pull-down/input). Take “GATGATTGTTCTCCCAGCTGATGAATTATTTACATCGAGTAAACAAATTTTCCTAATCTTTCTGTTCAAGCGCCATCTAC”: the binding signal is 2.34 RPM ratio (pull-down/input).

For the sequence “GATGATTGTTCTCCCAGCTGATGAATTTAGCCTCTCGAGTAAACAAATTTTCCTAATCTTTCTGTTCAAGCGCCATCTAC”, the binding signal is 0.995 RPM ratio (pull-down/input). For the sequence “GATGATTGTTCTCCCAGCTGATGAATTTCAATTTTCGAGTAAACAAATTTTCCTAATCTTTCTGTTCAAGCGCCATCTAC”, the binding signal is 1.11 RPM ratio (pull-down/input). On to “GATGATTGTTCTCCCAGCTGATGAATTGTTGGCGTCGAGTAAACAAATTTTCCTAATCTTTCTGTTCAAGCGCCATCTAC”, for which the binding signal is 1.35 RPM ratio (pull-down/input). In the case of “GATGATTGTTCTCCCAGCTGATGAATTTCGGTATTCGAGTAAACAAATTTTCCTAATCTTTCTGTTCAAGCGCCATCTAC”, the binding signal was 0.97 RPM ratio (pull-down/input). As for “GATGATTGTTCTCCCAGCTGATGAATTCGCGTAATCGAGTAAACAAATTTTCCTAATCTTTCTGTTCAAGCGCCATCTAC”, the binding signal is 1.28 RPM ratio (pull-down/input). On to “GATGATTGTTCTCCCAGCTGATGAATTTAGCGGATCGAGTAAACAAATTTTCCTAATCTTTCTGTTCAAGCGCCATCTAC”, for which the binding signal is 0.899 RPM ratio (pull-down/input). “GATGATTGTTCTCCCAGCTGATGAATTCGAGATTTCGAGTAAACAAATTTTCCTAATCTTTCTGTTCAAGCGCCATCTAC”: the binding signal is 0.767 RPM ratio (pull-down/input). Take “GATGATTGTTCTCCCAGCTGATGAATTTACGAACTCGAGTAAACAAATTTTCCTAATCTTTCTGTTCAAGCGCCATCTAC”: the binding signal is 1.15 RPM ratio (pull-down/input). As for “GATGATTGTTCTCCCAGCTGATGAATTTGCATAATCGAGTAAACAAATTTTCCTAATCTTTCTGTTCAAGCGCCATCTAC”, the binding signal was 1.4 RPM ratio (pull-down/input).

As for “GATGATTGTTCTCCCAGCTGATGAATTAGCCGTGTCGAGTAAACAAATTTTCCTAATCTTTCTGTTCAAGCGCCATCTAC”, the binding signal was 0.87 RPM ratio (pull-down/input). For the sequence “GATGATTGTTCTCCCAGCTGATGAATTCACGACATCGAGTAAACAAATTTTCCTAATCTTTCTGTTCAAGCGCCATCTAC”, the binding signal is 1 RPM ratio (pull-down/input). Consider “GATGATTGTTCTCCCAGCTGATGAATTAAAGAAATCGAGTAAACAAATTTTCCTAATCTTTCTGTTCAAGCGCCATCTAC”, for which the binding signal is 1.14 RPM ratio (pull-down/input). In the case of “GATGATTGTTCTCCCAGCTGATGAATTGCGCCATTCGAGTAAACAAATTTTCCTAATCTTTCTGTTCAAGCGCCATCTAC”, the binding signal was 1.14 RPM ratio (pull-down/input). Turning to “GATGATTGTTCTCCCAGCTGATGAATTCAACTGCTCGAGTAAACAAATTTTCCTAATCTTTCTGTTCAAGCGCCATCTAC”, the binding signal is 0.801 RPM ratio (pull-down/input).

Take “GATGATTGTTCTCCCAGCTGATGAATTCCGGAGATCGAGTAAACAAATTTTCCTAATCTTTCTGTTCAAGCGCCATCTAC”: the binding signal is 0.814 RPM ratio (pull-down/input). Next, “GATGATTGTTCTCCCAGCTGATGAATTACCGACCTCGAGTAAACAAATTTTCCTAATCTTTCTGTTCAAGCGCCATCTAC”: 0.893 RPM ratio (pull-down/input).

With “GATGATTGTTCTCCCAGCTGATGAATTTTTAAAATCGAGTAAACAAATTTTCCTAATCTTTCTGTTCAAGCGCCATCTAC”, the binding signal is 1.13 RPM ratio (pull-down/input). Consider “GATGATTGTTCTCCCAGCTGATGAATTTCTGCTGTCGAGTAAACAAATTTTCCTAATCTTTCTGTTCAAGCGCCATCTAC”, for which the binding signal was 1.2 RPM ratio (pull-down/input).

As for “GATGATTGTTCTCCCAGCTGATGAATTAAGTTGTTCGAGTAAACAAATTTTCCTAATCTTTCTGTTCAAGCGCCATCTAC”, the binding signal was 1.42 RPM ratio (pull-down/input). As for “GATGATTGTTCTCCCAGCTGATGAATTACGAGTCTCGAGTAAACAAATTTTCCTAATCTTTCTGTTCAAGCGCCATCTAC”, the binding signal is 0.992 RPM ratio (pull-down/input).

Regarding “GATGATTGTTCTCCCAGCTGATGAATTACGCCGATCGAGTAAACAAATTTTCCTAATCTTTCTGTTCAAGCGCCATCTAC”, the binding signal was 1.03 RPM ratio (pull-down/input). Then “GATGATTGTTCTCCCAGCTGATGAATTTACATTGTCGAGTAAACAAATTTTCCTAATCTTTCTGTTCAAGCGCCATCTAC”, with 1.47 RPM ratio (pull-down/input); and “GATGATTGTTCTCCCAGCTGATGAATTCCACCGCTCGAGTAAACAAATTTTCCTAATCTTTCTGTTCAAGCGCCATCTAC”, with 0.73 RPM ratio (pull-down/input). As for “GATGATTGTTCTCCCAGCTGATGAATTAGGAACATCGAGTAAACAAATTTTCCTAATCTTTCTGTTCAAGCGCCATCTAC”, the binding signal is 1.04 RPM ratio (pull-down/input).

The record behind these values is PMC12820563, “FoxP3 forms a head-to-head dimer in vivo and stabilizes its multimerization on adjacent microsatellites”.
